# From paper PMC4336329 (PLoS ONE, 2015)
# The campaign covered roughly 310,000 compounds. About 2,200 (0.71%) showed an effect of 50% or more. The effect is printed as a negative number. This is one part of the list.
# Target: human ether-à-go-go-related gene (hERG) potassium channel (human, UniProt Q12809)
# Assay: primary screen, population patch clamp on CHO cells stably expressing hERG
# Sequence of human ether-à-go-go-related gene (hERG) potassium channel (Q12809 whole entry, looked up): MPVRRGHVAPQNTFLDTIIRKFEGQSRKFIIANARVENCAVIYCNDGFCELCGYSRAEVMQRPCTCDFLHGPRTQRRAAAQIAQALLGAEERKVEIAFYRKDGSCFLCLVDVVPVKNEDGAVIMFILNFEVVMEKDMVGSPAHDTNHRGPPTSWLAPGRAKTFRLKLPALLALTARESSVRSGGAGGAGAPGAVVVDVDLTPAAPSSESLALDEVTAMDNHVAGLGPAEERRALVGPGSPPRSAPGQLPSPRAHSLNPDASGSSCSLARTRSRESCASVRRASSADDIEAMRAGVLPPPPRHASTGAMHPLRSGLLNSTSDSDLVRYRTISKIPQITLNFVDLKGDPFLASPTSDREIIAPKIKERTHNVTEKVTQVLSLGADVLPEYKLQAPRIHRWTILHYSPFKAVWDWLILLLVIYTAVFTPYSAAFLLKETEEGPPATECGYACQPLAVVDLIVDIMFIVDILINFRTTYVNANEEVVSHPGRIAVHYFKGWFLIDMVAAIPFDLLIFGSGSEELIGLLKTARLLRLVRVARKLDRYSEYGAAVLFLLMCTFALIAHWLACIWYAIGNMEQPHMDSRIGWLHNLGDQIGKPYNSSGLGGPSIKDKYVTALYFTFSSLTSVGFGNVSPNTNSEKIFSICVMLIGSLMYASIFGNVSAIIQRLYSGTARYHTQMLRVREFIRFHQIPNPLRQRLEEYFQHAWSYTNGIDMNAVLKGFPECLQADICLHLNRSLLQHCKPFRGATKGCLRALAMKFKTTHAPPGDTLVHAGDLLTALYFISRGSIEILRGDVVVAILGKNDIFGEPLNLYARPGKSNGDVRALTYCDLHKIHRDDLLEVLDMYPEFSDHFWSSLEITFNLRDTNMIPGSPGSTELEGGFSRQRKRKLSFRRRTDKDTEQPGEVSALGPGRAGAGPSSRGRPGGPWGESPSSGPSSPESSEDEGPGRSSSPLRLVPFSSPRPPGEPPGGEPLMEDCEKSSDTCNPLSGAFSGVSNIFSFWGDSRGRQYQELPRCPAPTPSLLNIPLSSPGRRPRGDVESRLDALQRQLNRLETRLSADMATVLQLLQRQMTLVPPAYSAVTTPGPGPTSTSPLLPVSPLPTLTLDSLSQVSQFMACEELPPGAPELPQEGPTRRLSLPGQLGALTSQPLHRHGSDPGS
row,SMILES,"hERG current change (%, negative = inhibition) at 1uM [%]"
1,O=C(CCN1C(=O)c2ccccc2C1=O)NCc1ccc(Cl)cc1,5.62
2,Cc1cc(=O)[nH]c2n[nH]c(-c3ccccc3)c12,3.87
3,Cc1cccc(-c2nc(S(=O)(=O)c3ccccc3)c(N3CCOCC3)o2)c1,3.01
4,Cc1cccc2sc(NNC(=O)C3=COCCO3)nc12,-21.6
5,O=S(=O)(c1ccc(F)cc1)N1CCN(S(=O)(=O)c2cccs2)CC1,9.14
6,CN1CCN(C(=S)SCC(=O)Nc2ccc(Cl)cc2C(=O)c2ccccc2)CC1,-5.6
7,CN(CC(=O)NCC1CCCO1)S(=O)(=O)c1cc(Cl)ccc1Cl (stereo not drawn),0.917
8,COc1ccc(CNC(=O)CSc2nnc(C3CC3)n2C2CC2)cc1,8.45
9,Cc1ccc(S(=O)(=O)N2CCN(C(=O)COC(=O)Cc3cccc(C(F)(F)F)c3)CC2)c(C)c1,7.77
10,Cn1c(=O)c2nc(Cl)c(-c3ccccc3)nc2n(C)c1=O,-0.094
11,COc1cc(NC(=O)c2cccnc2Sc2ccc(Cl)cc2)cc(OC)c1OC,6.7
12,Nc1nccnc1C(=O)OCC(=O)c1ccc[nH]1,5.19
13,O=C(c1oc(=O)c2ccccc2c1-c1ccccc1)N1CCN(C2CCCCC2)CC1,-22.8
14,O=C(CC(=O)NCc1ccccc1)NCc1ccccc1,13.9
15,CCOc1ccc(C2/C(=C(/O)c3ccc4c(c3)CC(C)O4)C(=O)C(=O)N2CCCn2ccnc2)cc1 (stereo not drawn),14.3
16,COC(=O)C1=C(C)Nc2nnnn2C1c1cccs1 (stereo not drawn),1.42
17,Cc1cc(C)n2nc(SC(C)C(=O)NC3CCCCC3C)nc2n1 (stereo not drawn),2.75
18,COC(=O)C1CCN(C(=O)COC(=O)CSc2ccc(C(N)=O)cc2[N+](=O)[O-])CC1,8.5
19,C[C@@H](CN=[N+]=[N-])CN1CC[C@H](O)CCC1=O,11.5
20,CC(=O)N(C)c1ccc(NC(=O)Nc2ccc(Cl)cc2)cc1,8.67
21,Cc1ccc(OCCCCN2CCCCC2)c(Br)c1.O=C(O)C(=O)O,-28.5
22,O=C(NCCc1ccc(Cl)cc1)C1CCC(CNc2c(N3CCCCC3)c(=O)c2=O)CC1 (stereo not drawn),10.4

row,SMILES,"hERG current change (%, negative = inhibition) at 1uM [%]"
1,C[C@H](NC(=O)C1CCN(S(=O)(=O)c2ccccc2)CC1)C(=O)NCc1ccco1,26.6
2,COc1cc(C(=O)NCC(c2ccc(F)cc2)N2CCOCC2)ccc1OCc1ccccc1Cl (stereo not drawn),3.04
3,Cc1cc(=O)oc2c(C)c(OCC(=O)N3CCC(C(=O)O)(c4ccccc4)CC3)ccc12,16.6
4,CCc1nc(N2CCC3(CC2)OCCO3)c2nnn(Cc3ccccc3Cl)c2n1,20.9
5,O=C(CN1CCN(C(=O)C2COc3ccccc3O2)CC1)Nc1ccc(F)cc1 (stereo not drawn),-63.5
6,CC1CCN(C(=O)Cn2cc(C#N)c3ccccc32)CC1,15.1
7,O=C(Nc1ccc(F)cc1)c1cn(-c2ccccc2)nc1-c1ccncc1,-25.6
8,COC(=O)C1C(O)=C(C=Nc2ccc(N)cc2)C(=O)CC1(C)C (stereo not drawn),8.86
9,COCCCNC(=O)c1ccc(Cn2c(=O)c3ccccc3n(CC(=O)NCCc3ccc(OC)c(OC)c3)c2=O)cc1,8.89
10,CCOC(=O)C1(Cc2ccccc2)CCCN(Cc2cnn(CC)c2)C1 (stereo not drawn),4.29
11,COc1ccc(OC)c(NC(=S)NN2CCOCC2)c1,12
12,CSCCC(NC(=O)c1c(C)oc2c1CCCC2)C(=O)O (stereo not drawn),7.87
13,CCc1ccc(NC(=O)C2CC(=O)Nc3ncnn32)cc1 (stereo not drawn),15.2
14,OC(COc1ccc(CNCc2cccnc2)cc1)CN1CCc2ccccc2C1 (stereo not drawn),-0.851
15,COc1ccc(NC(=O)C2Cc3ccccc3C(=O)O2)cc1 (stereo not drawn),8.38
16,Cc1nc2ccccn2c1C(=O)N/N=C/c1cc(C)n(-c2ccc(Br)cc2)c1C,16.7
17,C=CCc1cccc(/C=N/NC(=O)CNc2cccc3ccccc23)c1O,-0.772
18,COC(=O)c1ccc(NC(=O)CCc2nnc3ccc(N4CCC5(CC4)OCCO5)nn23)cc1,11.1
19,CN(C)CC1CCCCC1OC(=O)c1ccc(S(=O)(=O)N(C)c2ccccc2)cc1 (stereo not drawn),13.7
20,c1cncc(-c2nc3c(ccc4ccccc43)[nH]2)c1,12.8
21,CNC(=S)NNC(=O)c1sc2cc(C(F)(F)F)cnc2c1-c1cccnc1,13
22,Cc1c(Cl)cccc1N1C(=O)C2ON(c3ccccc3)C(c3cccnc3)C2C1=O (stereo not drawn),10.6

row,SMILES,"hERG current change (%, negative = inhibition) at 1uM [%]"
1,O=C(Cc1ccccc1Cl)Nc1cc(S(=O)(=O)N2CCOCC2)ccc1N1CCOCC1,9.2
2,O=C(c1ccco1)N1CCN=C1SCc1cccc(Cl)c1,16.6
3,Cc1cc(C)nc(NS(=O)(=O)c2ccc(NC(=S)NC(=O)C(C)C)cc2)n1,2.48
4,CN(C)c1ccc(C(=O)NNC(=O)Nc2ccccc2)cc1,14.3
5,O=C(CCSc1ccccc1)OCn1nnc2ccccc2c1=O,13.7
6,Cc1nc2scc(C)n2c(=O)c1S(=O)(=O)NCCc1ccccc1,19.4
7,CCOC(=O)N1CCN(C(=O)C(=O)NNC(=O)COc2ccc(Cl)cc2)CC1,14.3
8,CC(=O)N1c2ccc(S(=O)(=O)NCCC(=O)NC3CCCCCC3)cc2CC1C (stereo not drawn),2.71
9,O=C(N1CCN(c2ccccc2)CC1)C12CC3CC(CC(C3)C1)C2,-21.3
10,CCOc1ccc(NC(=O)CN(C)CC(=O)Nc2ccc(F)c(F)c2F)cc1OCC,8.28
11,NC(=S)N=Nc1c(O)n(CCCl)c2ccc(Cl)cc12,5.67
12,Cc1ccc(S(=O)(=O)N2CCN(Cc3csc(C)n3)CC2)cc1,12.1
13,O=C(c1ccc(-n2cncn2)c([N+](=O)[O-])c1)N1CCN(S(=O)(=O)c2ccccc2Br)CC1,-21.8
14,CCO[C@H]1OC(C(=O)NC2CC2)=C[C@@H](C2CC2)[C@@H]1CCCO,11.4
15,O=C(CNS(=O)(=O)c1cccs1)NCc1ccccc1,10.6
16,Cc1cc(C)n(-c2ccc(C(=O)OCC(=O)NCc3ccco3)cc2)n1,7.84
17,O=C(NC1CC1)C1C2C3C4CC5C3C5C4C12 (stereo not drawn),3.16
18,NC(=O)NC(=O)COC(=O)c1ccc2noc(-c3ccccc3)c2c1,14.7
19,CCSc1ccccc1C(=O)Nc1ccc([N+](=O)[O-])cc1OC,-6.29
20,Cl.O=C(NCCCc1ccccc1)[C@@H]1Cc2ccccc2CN1,11.6
21,CCCCC(=O)OCc1nc(N)nc(Nc2ccccc2C)n1,10.1
22,COc1ccc(CNCCC(c2ccccc2)C2CCOC(C)(C)C2)cc1 (stereo not drawn),-12.5

row,SMILES,"hERG current change (%, negative = inhibition) at 1uM [%]"
1,Cc1cccc(Oc2nc3ccccn3c(=O)c2/C=C(\C#N)C(=O)NC2CCS(=O)(=O)C2)c1C (stereo not drawn),15.9
2,Cc1cccc(CNC(=O)C2CCC(=O)N(C3CCCC3)C2)c1 (stereo not drawn),25.3
3,CCOC(=O)c1sc2ncn(CC(=O)N(CC)CC)c(=O)c2c1C,9.01
4,CCOC(=O)c1cccnc1SCC(=O)Nc1ccc(C)cc1,3.81
5,Cc1ccc(-n2nnc(-c3nccs3)n2)cc1,-2.2
6,CCOC(=O)Cn1cc(C(=O)C(=O)N2CCOCC2)c2ccccc21,-3.81
7,CNc1nc(-c2ccccc2)nc(-c2ccccc2)c1C#N,14.1
8,Cn1c(C(=O)N2CCCCCC2)cc2c(=O)n(C)c3ccccc3c21,0.569
9,Cc1cccc2[nH]c(-c3ccc(NC(=O)c4ccco4)cc3)nc12,2.22
10,Cc1c(C#N)c(N)c(C(=O)c2ccccc2)n1Cc1ccccc1,5.47
11,O=C(CCC(=O)c1ccc(F)cc1)Nc1cccc(S(=O)(=O)Nc2cccc(Cl)c2)c1,4.34
12,Cc1ccc(NC(=O)Nc2nnc(Cc3ccc([N+](=O)[O-])cc3)s2)cc1,12
13,O=C(NCCNC(=O)c1ccccc1F)c1ccco1.O=C(O)C(=O)O,10
14,Cc1ccc(C)c(OCc2cc(C(=O)N(C)Cc3nccn3C)no2)c1,12.1
15,CCCS(=O)(=O)N1CCCC(C(=O)NCCc2ccccc2)C1 (stereo not drawn),11.3
16,COc1cc([N+](=O)[O-])ccc1NC(=O)NN1CCN(C)CC1,-7.37
17,COc1ccccc1NC1=C(Cl)C(=O)N(c2ccccc2)C1=O,-1.68
18,O=C(OCCN(C1=NS(=O)(=O)c2ccccc21)c1ccccc1Cl)c1ccc(Cl)cc1,-0.504
19,C=C1CCN(c2ccc(C(=O)O)cc2[N+](=O)[O-])CC1,16.8
20,COc1cc(NC(=O)c2cccc(Cl)c2)c(OC)cc1NC(=O)CN1CCOCC1,-10.2
21,O=C(NCCc1ccccc1)C(=O)NCC1OCCN1S(=O)(=O)c1ccc(F)cc1 (stereo not drawn),2.05
